Results from PubChem BioAssay AID1159614 (National Center for Advancing Translational Sciences (NCATS), 2016).
The whole screen tested about 45,000 compounds, of which about 65 (0.1%) were called active. Calls follow the shape of the dose curve; as a rule, active = well fitted activation curve with a large enough effect; inconclusive = small, poorly fitted or top-dose-only effect; inactive = no such curve, though single readings can be large or run the other way. This is one part of the list.

biological target: Galactocerebrosidase (Homo sapiens) (UniProt P54803); assay: A Novel Cell-Based Assay to Identify Small Molecules for B -Galactocerebrosidase; conditions: 145M-Twi-hGALC-G270D cells (Twitcher mouse brain line with human GALC G270D), HMU-beta-Gal fluorescence, 48 h; series mostly up to 57.5 µM; activation: at the top concentration; also: 0% is about no effect; nearly all actives have a fitted effect of over 65% in size
UniProt P54803, sequence (P54803 whole entry, looked up): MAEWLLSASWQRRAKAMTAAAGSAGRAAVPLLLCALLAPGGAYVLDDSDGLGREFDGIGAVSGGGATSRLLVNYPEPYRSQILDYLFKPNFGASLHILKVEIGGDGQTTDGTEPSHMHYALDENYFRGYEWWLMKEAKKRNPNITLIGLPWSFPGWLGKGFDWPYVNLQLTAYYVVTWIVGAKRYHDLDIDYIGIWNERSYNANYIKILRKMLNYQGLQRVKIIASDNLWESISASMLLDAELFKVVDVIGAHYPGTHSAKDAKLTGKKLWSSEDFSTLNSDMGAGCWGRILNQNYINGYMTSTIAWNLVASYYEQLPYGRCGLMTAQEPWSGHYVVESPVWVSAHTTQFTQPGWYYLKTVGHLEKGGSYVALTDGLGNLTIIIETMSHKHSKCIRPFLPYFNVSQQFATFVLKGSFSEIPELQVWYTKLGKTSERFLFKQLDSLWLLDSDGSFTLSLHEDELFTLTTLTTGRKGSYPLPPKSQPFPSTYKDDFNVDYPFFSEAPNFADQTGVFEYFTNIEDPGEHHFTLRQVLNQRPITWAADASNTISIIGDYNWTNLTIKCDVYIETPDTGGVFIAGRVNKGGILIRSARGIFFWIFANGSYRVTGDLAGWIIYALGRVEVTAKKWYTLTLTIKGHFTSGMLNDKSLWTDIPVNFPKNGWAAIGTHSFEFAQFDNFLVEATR
Outline: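 Fluorogenic HMU-b-Gal hydrolysis (0.1 mM final, pH 5.2 citrate-phosphate with 1 mg/mL sodium taurocholate; carbonate stop buffer) measures mutant GALC activity after compound treatment of live 145M-Twi Twitcher brain cells stably carrying human GALC-G270D, with wild-type GALC line alongside; activation sought.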

activation, inactive:
Cc1ccc(S(=O)(=O)N2CCN(Cc3ccc4c(c3)OCO4)CC2)cc1 -14.4%
CCn1c(=O)cc(OCC(=O)N2CCN(c3cccc(Cl)c3)CC2)c2ccccc21 -11.3%
CNC(=O)c1cc(Oc2ccc(NC(=O)Nc3ccc(Cl)c(C(F)(F)F)c3)cc2)ccn1 -20.3%
CCNc1ccc(-c2nc(-c3ccncc3)no2)cc1[N+](=O)[O-] 1.29%
COc1ccc(C(=O)NCCn2cc(SCC(=O)Nc3ccc(F)cc3)c3ccccc32)cc1 -4.15%
Cc1ccc2c(=O)c(C(=O)c3ccccc3)cn(CC(=O)Nc3ccccc3C)c2n1 -15.5%
COc1cc(NC(=O)Cn2cnc3sc(C)c(S(=O)(=O)N4CCC(C)CC4)c3c2=O)cc(OC)c1OC -13.5%
O=C(COc1ccccc1F)Nc1ccc2nc(SCC(=O)N3CCCC3)sc2c1 -5.73%
Cc1nc(-c2ccc(S(=O)(=O)NCc3ccc(OC(C)C)cc3)cc2)co1 -30.3%
Cc1nn(CCCC(=O)Nc2cccc(C(F)(F)F)c2)c(=O)c2nn(-c3ccccc3)c(C)c12 -11.8%
CCN1CCN(C(=O)N[C@@H](C(=O)N[C@@H]2C(=O)N3[C@@H]2SC(C)(C)[C@H]3C(=O)O)c2ccccc2)C(=O)C1=O -17.1%
CCn1cc(C(=O)NCCc2ccc(Cl)cc2)c(=O)c2cc(S(=O)(=O)N3CCCCCC3)ccc21 -11.7%
COc1cccc2c1C(=O)c1c(O)c3c(c(O)c1C2=O)C[C@@](O)(C(C)=O)C[C@@H]3O[C@H]1C[C@H](N)[C@H](O)[C@H](C)O1 -15.4%
CCOc1ccc(C(=O)c2cn(CC(=O)Nc3ccc(F)c(F)c3)c3cc4c(cc3c2=O)OCCO4)cc1 6.72%
CSc1ncc(Cl)c(C(=O)Nc2c(C(=O)c3ccc(C)c(F)c3)oc3ccccc23)n1 -9.95%
COc1cccc(NC(=O)CCc2nc(-c3cccs3)no2)c1 -10.2%
COc1ccc(-c2noc(CSc3nc(N)cc(=O)[nH]3)n2)cc1 -11.8%
Cc1cccc(N2CCN(c3ccc(NC(=O)c4ccccc4)cc3C(=O)O)CC2C)c1 (stereo not drawn) -7.8%
Cc1cccc(NC(=O)c2ccc3nc(CCc4ccccc4)oc3c2)c1C -22.7%
COc1cccc(CNC(=O)C(Cc2ccccc2)NS(=O)(=O)c2ccc3c(c2)oc(=O)n3C)c1 (stereo not drawn) -12%
Cc1cccc(OC(=O)c2cc(-c3ccc4c(c3)OCCO4)on2)c1C 4.98%
Cc1cc2[nH]c(=O)c(=O)[nH]c2cc1S(=O)(=O)Nc1ccc(OC(F)(F)F)cc1 8.78%
O=C(Nc1ccccc1)c1ccc2c(O)c(S(=O)(=O)c3ccc(Cl)cc3)c(=O)[nH]c2c1 -14.3%
CCCS(=O)(=O)N1CCC(N2CCN(Cc3ccc(F)cc3)C(=O)C2=O)CC1 -19.1%
COc1ccc(-c2noc(-c3nnn(-c4ccc(C(C)C)cc4)c3C)n2)cc1OC -7.89%
Cc1cc(Nc2cccc(Cl)c2)nc2ccc(NC(=O)c3cccc(N(C)C)c3)cc12 -2.62%
CCOC(=O)c1ccc(NC(=O)CN2Cc3ccccc3C2=O)cc1 -10.6%
COc1ccccc1C(=O)Nc1onc2c1CCCC2 -6.44%
CCOc1ccccc1C(=O)Nc1ccc2nc3c(c(Nc4ccc(OC)c(OC)c4)c2c1)CCCC3 -7.32%
O=C(NCc1ccc(F)cc1)c1ccc2c(c1)nc1n2CCCCC1 -22.8%
Cc1ncc(CO)c2c1Oc1nc(-c3ccc(F)cc3)nc(SCc3ccc(F)cc3Cl)c1C2 -14.1%
O=S(=O)(c1ccc2nc(Nc3cccc(F)c3)ccc2c1)N1CCCC1 -20.5%
CCOc1ccc(-c2cccc(NS(=O)(=O)c3ccccc3C(F)(F)F)c2)nn1 -11.9%
Cc1ccc(NC(=O)Cn2cc(C(=O)c3ccco3)c3ccccc32)cc1 -21.8%
Cc1ccc(S(=O)(=O)NCC(Nc2cccc(Cl)c2)c2ccccc2)cc1 (stereo not drawn) -33%
Cc1ccccc1Cn1c2ccccc2c2cnn(CC(=O)N3CCC(C)CC3)c(=O)c21 -38%
CCn1cc(C(=O)N2CCN(c3ccc(OC)cc3)CC2)c2cc(OC)c(OC)cc2c1=O -11.2%
CCOc1ccccc1C1C(C(=O)Nc2ccccc2)=C(C)Nc2c(C(=O)Nc3ccc(F)cc3)cnn21 (stereo not drawn) -13.4%
COc1ccc(-c2cc3nccc(-c4cc(Cl)c(C)cc4O)n3n2)cc1 -14%
CCn1c(C(=O)N2CCCC(C(=O)N3CCN(c4ccccc4)CC3)C2)cc2sccc21 (stereo not drawn) -10.7%
CCc1ccc(NC(=O)N2CCC(N3CCN(Cc4ccc(C)cc4)C(=O)C3=O)CC2)cc1 -11%
O=c1cc(-c2ccccc2)n2c(SCc3ccc(Br)cc3)nnc2[nH]1 -4.78%
CCOc1ccccc1NC(=O)CSC1=Nc2ccccc2C2=NC(CC(=O)NCc3ccc4c(c3)OCO4)C(=O)N12 (stereo not drawn) -15.9%
Cc1nn(CC(=O)NCCc2ccccc2)c(=O)c2c1sc1ccccc12 -30.5%
O=C(Cc1ccccc1)Nc1nnc2n1CCS2 -23.4%
CCN(Cc1ccccc1)Cc1c(O)ccc2oc(C)c(C(=O)Nc3ccccc3C)c12 1.95%
CC(C)(C)c1ccc(C(=O)N2CCN(CCc3ccccn3)CC2)cc1 -14.2%
CC(=O)N1c2ccc(S(=O)(=O)N(C)CC(=O)N(Cc3ccccc3)C(C)C)cc2CC1C (stereo not drawn) -17.5%
CCC(C)NC(=O)Cn1c(=O)n(-c2ccc(C)c(C)c2)c(=O)c2c(C)c(C(=O)N(CC)CC)sc21 (stereo not drawn) -15%
Cc1ccc(S(=O)(=O)NCC(c2ccc(N(C)C)cc2)N2CCc3ccccc32)cc1 (stereo not drawn) -15%
Cc1cc2nc(N(Cc3cccnc3)C(=O)c3ccc(Cl)s3)sc2cc1C 0.324%
CCCCSCCCNC(=O)c1c[nH]c2ccc(S(=O)(=O)Nc3cccc(OC)c3)cc2c1=O -2.69%
COc1ccc(-n2ccnc(NCCc3ccc(Cl)cc3)c2=O)cc1OC -8.06%
COc1ccccc1CN1C(=O)C(=O)c2cccc(C)c21 -26.9%
COc1ccc2c(c1)c(=O)c(C(=O)c1ccccc1)cn2CC(=O)Nc1ccc2c(c1)OCO2 -11%
COc1ccc2c(CNCCc3ccc(SC)cc3)c(C(=O)O)n(Cc3ccc(F)cc3)c2c1 -16%
COc1ccc(Cn2cc(S(=O)(=O)c3ccc(C)cc3)c(=O)c3cc(F)ccc32)cc1 -15.4%
Cc1nc(-c2ccc(S(=O)(=O)Nc3cc(Cl)ccc3C)cc2)co1 -10.6%
COc1ccc(CCNC(=O)c2ccc3c(c2)CCN3S(C)(=O)=O)cc1OC -8.71%
Cc1ccc(CNC(=O)CCc2cn(C)c3ccccc23)cc1 -8.58%
NS(=O)(=O)c1ccc(CCNC(=O)C2CCN(c3ncnc4c3nc3n4CCCCC3)CC2)cc1 -24.2%
CCC(Sc1nc2c(sc3ccccc32)c(=O)n1CCc1ccc(OC)c(OC)c1)C(=O)N(CC)CC (stereo not drawn) -12.4%
CCC(CC)C(=O)Nc1nnc(S(=O)(=O)N2CCCCCC2)s1 -18.8%
CCS(=O)(=O)c1ncc(Cl)c(C(=O)N2CCN(c3ccc(OC)cc3)CC2)n1 -14.6%
Cc1cccc(CN2C(=O)c3ccccc3Sc3ccc(C(=O)NCc4ccco4)cc32)c1 -0.0203%
CCOc1ccc(NC(=O)c2oc3ccccc3c2NC(=O)COc2cccc(OC)c2)cc1 -12.2%
O=c1c2ccccc2nc(/C=C/c2cccc3ccccc23)n1-c1ccc(F)cc1F -15%
COc1ccc(CNC(=O)Cc2c(C)c3cc4c(C)coc4cc3oc2=O)cc1OC -10.6%
COc1ccc(C2c3[nH]c4ccccc4c3CCN2C(=O)CCC2CCCC2)cc1 (stereo not drawn) -8.03%
CCN(CC)c1ccc(NC(=O)c2cc(C)nc3c2c(C)nn3-c2ccc(C)cc2)c(C)c1 -21.6%
CC(Sc1nccn1C)C(=O)Nc1ccccc1C#N (stereo not drawn) -14.5%
Cc1cn2c(=O)cc(COC(=O)c3ccc(NC(=O)c4ccc(F)cc4)cc3)nc2s1 -9.17%
CCOC(=O)c1ccc(NC(=O)c2cnn3c(=O)c4c(n(CC)c23)CCN(Cc2ccc(OC)cc2)C4)cc1 -27.4%
COC(=O)c1ccc(Nc2ncnc3c2cnn3C)cc1 -15.3%
CC1CCN(S(=O)(=O)N2CCC(C(=O)NCc3ccccc3Cl)CC2)CC1 -24.3%
O=C(CNC(=O)c1ccccc1)OCc1cc(=O)n2nc(C3CCCCC3)sc2n1 -3.42%
COc1ccc(N2CCN(C(=O)CSc3nc(-c4ccc(C(C)C)cc4)no3)CC2)cc1 -15.4%
Cc1ccc2sc(N(Cc3cccnc3)C(=O)CCS(=O)(=O)c3ccccc3)nc2c1C -5.31%
CCN(CC)C(=O)c1sc2c(c1C)c(=O)n(Cc1ccccc1)c(=O)n2Cc1ccccc1C -3.18%
Cc1ccsc1CCN1C(=O)N(c2ccccc2)C(=O)C1CC(=O)Nc1ccc(Cl)cc1 (stereo not drawn) -30.3%
COc1ccc(-c2nc3scc(CCNS(=O)(=O)c4ccc(Oc5ccccc5)cc4)n3n2)cc1OC -1.45%
CCN(CC)C(=O)c1sc2c(c1C)c(=O)n(-c1ccc(C)c(C)c1)c(=O)n2Cc1cc(=O)n2ccccc2n1 -1.8%
Cc1ncc([N+](=O)[O-])n1CC(C)O (stereo not drawn) -7.96%
COc1ccc(-c2nc3scc(CCNS(=O)(=O)c4ccc5c(c4)OCCO5)n3n2)cc1OC -12.1%
O=C(NCc1ccc(F)cc1Cl)c1cc(=O)[nH]c2ccc(S(=O)(=O)N3CCCCC3)cc12 0.543%
COc1ccc(CNC(=O)Cc2c(C(=O)O)c(C)cn2C)cc1 -9.91%
Clc1ccc(CN2CCN(c3ncnc4sc5c(c34)CCCC5)CC2)cc1Cl -25.7%
O=C(Cn1cc(C(=O)C2CCCCC2)c2ccccc21)Nc1ccccc1Cl -15.7%
C/C=C(/C(=C/C)c1ccc(O)cc1)c1ccc(O)cc1 -11.2%
Cc1cc(C)cc(OCCSc2nc3ccc(NC(=O)c4cccs4)cc3s2)c1 -29.2%
CCOc1ccc(C(=O)Nc2c(C(=O)Nc3ccccc3OC)oc3ccccc23)cc1OCC -8.85%
Cc1c(-c2ccccc2)c(=O)oc2ccc(OC(=O)N3CCOCC3)cc12 -18.4%
O=C(CSc1n[nH]c(-c2ccccc2Cl)n1)NCCCc1ccccc1 -13.6%
